Experimental data taken from article PMC4336329 (PLoS ONE, 2015).
Out of some 310,000 compounds screened, about 14,000 (4.5%) showed an effect of 50% or more. Effects have a minus sign here. The list shows a part of the results.

Biological target: human ether-à-go-go-related gene (hERG) potassium channel (human, UniProt Q12809)
Test: primary screen, population patch clamp on CHO cells stably expressing hERG
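Note: peak tail current of the secondary pulse compared with the same well before compound.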

human ether-à-go-go-related gene (hERG) potassium channel, sequence (Q12809 whole entry, looked up): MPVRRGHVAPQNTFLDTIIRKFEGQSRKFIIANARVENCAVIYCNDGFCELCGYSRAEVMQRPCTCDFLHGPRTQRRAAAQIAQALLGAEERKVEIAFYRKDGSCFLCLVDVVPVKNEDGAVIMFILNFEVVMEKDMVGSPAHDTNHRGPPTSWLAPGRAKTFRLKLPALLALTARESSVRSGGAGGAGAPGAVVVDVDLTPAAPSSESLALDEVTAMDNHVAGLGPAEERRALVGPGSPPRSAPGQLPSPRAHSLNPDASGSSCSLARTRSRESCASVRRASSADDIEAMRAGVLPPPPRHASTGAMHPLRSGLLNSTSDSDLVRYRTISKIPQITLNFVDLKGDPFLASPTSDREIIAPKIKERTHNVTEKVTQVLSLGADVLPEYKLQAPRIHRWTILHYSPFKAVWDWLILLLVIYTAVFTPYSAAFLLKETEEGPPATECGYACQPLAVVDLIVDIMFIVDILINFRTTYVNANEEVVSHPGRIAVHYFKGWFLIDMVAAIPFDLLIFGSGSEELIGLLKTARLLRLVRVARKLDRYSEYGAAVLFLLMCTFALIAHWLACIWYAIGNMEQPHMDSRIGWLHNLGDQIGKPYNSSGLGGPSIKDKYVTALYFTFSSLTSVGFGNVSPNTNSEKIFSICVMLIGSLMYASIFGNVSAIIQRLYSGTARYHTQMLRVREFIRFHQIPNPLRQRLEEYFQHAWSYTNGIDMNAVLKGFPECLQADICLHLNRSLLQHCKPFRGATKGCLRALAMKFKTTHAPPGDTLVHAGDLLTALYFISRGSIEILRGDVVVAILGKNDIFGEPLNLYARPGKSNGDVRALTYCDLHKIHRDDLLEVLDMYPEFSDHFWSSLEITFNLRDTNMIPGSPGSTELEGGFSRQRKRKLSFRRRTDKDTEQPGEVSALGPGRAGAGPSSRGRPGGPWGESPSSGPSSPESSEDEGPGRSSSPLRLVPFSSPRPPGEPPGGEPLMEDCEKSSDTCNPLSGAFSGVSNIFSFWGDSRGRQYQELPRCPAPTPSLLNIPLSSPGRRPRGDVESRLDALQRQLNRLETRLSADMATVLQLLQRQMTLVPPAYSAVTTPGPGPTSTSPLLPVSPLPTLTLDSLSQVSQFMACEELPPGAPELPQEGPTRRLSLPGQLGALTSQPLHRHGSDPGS

Point of comparison: O=C(c1cc2ccccn2n1)N1CCC2(CC1)OCCO2, “hERG current change (%, negative = inhibition) at 10uM” value 0.189%. Against it:
- CC(C)CCn1nc(C(=O)Nc2nc3c(s2)CCCC3)c2ccccc2c1=O — higher, 9.74%
- COc1ccc(OC)c(/C=N/NC(=O)c2cc(-c3ccc(C)o3)nc3ccccc23)c1 — higher, 16.7%
- COc1ccc(NC2(c3ccccc3)OC(=O)c3ccccc32)cc1 (centres unmarked) — higher, 1.2%
- COc1ccc(Cl)cc1NC(=O)CNc1ccc(F)cc1C — higher, 8.07%
- CC12CCC(C(=O)N(NC(=O)c3ccc(O)cc3)C1=O)C2(C)C (centres unmarked) — higher, 20.9%
- COc1ccc(N(CC(=O)Nc2cc(Cl)ccc2OC)C2=NC3CS(=O)(=O)CC3S2)cc1 (centres unmarked) — lower, -7.35%
- CC(C)Nc1nc(NC(C)C)nc(Oc2ccc(=O)n(C)n2)n1 — higher, 13.3%
- COc1cccc(OCc2nnc(SCC(=O)NCc3ccco3)n2C)c1 — lower, -0.586%
- O=C(COc1ccc(Cl)cc1Cl)NCC(=O)N/N=C/c1c[nH]c2ccccc12 — higher, 20.7%
- CN(CC(=O)Nc1ccccc1Cl)C(=O)COC(=O)/C=C/c1cccc(C(F)(F)F)c1 — higher, 12.7%
- CCOC(=O)Cn1c(CN2CCc3ccccc3C2)nc2c1c(=O)n(C)c(=O)n2C — lower, -17%
- CC1CC(=O)NN1C(=O)c1ccccc1 (centres unmarked) — higher, 3.33%
- O=S(=O)(Nc1cccc(-c2ccc(N3CCCCCC3)nn2)c1)c1cccc(F)c1 — higher, 16.3%
- CC(C)C[C@H](CO)Nc1nc(N(C)c2cccc(Cl)c2)c2ncn(C(C)C)c2n1 — lower, -7.87%
- O=C(NCC(=O)N1CCN(c2ccccc2O)CC1)c1ccc2c(c1)OCO2 — higher, 1.48%
- Cc1nn(C)c(C(=O)Nc2ccn(Cc3ccccc3F)n2)c1[N+](=O)[O-] — lower, -12.6%
- Cc1ccc(NC(=O)NC2CC(=O)N(c3ccc4c(c3)OCCO4)C2)c(C)c1 (centres unmarked) — higher, 1.86%
- Cc1oc2c(c(C)cc3oc(=O)c(CC(=O)NCC(=O)NCC(=O)NCC(C)O)c(C)c32)c1C (centres unmarked) — higher, 9.64%
- CS(=O)(=O)NCc1ccc(C(=O)NC2CCCCC2)cc1 — higher, 7.73%
- O=C(NCc1ccccn1)c1ccc(Cl)c(S(=O)(=O)N2CCOCC2)c1 — lower, -4.89%
- CSc1nsc(SCC(=O)Nc2ccccc2F)n1 — higher, 4.23%
- COc1cccc2c(=O)n(CC(=O)NC3CCCCC3)ccc12 — higher, 5.95%
- O=C(O)CCn1[nH]c(=O)ccc1=O — higher, 18.1%
- CCCC(=O)N1CCC(O)(c2cccc(F)c2)CC1 — higher, 10.7%
- c1ccc2c(NCCc3c[nH]c4ccccc34)c3ccccc3nc2c1 — lower, -74.7%
- CC(=O)COC(=O)C1CC(=O)N(c2ccc(C)c(C)c2)C1 (centres unmarked) — higher, 9.67%
- CCN(CC)CC(=O)Nc1c(C#N)cnn1-c1ccccc1 — higher, 18.7%
- CCN(CC)c1ccc(NC(=O)COC(=O)C23CCC(=O)N2c2ccccc2S3)cc1 (centres unmarked) — lower, -2.01%
- O=C(NCc1ccccc1)C(Cc1ccccc1)NS(=O)(=O)c1cccc2nsnc12 (centres unmarked) — lower, -18.5%
- COc1ccc(Nc2nc(NCCO)nc(OC)n2)cc1 — higher, 11.1%
- OCCNc1ncnc2c1c(-c1ccccc1)c(-c1ccccc1)n2Cc1ccco1 — lower, -44.9%
- Cn1ncc2c(NNC(=O)Cc3cccc4ccccc34)ncnc21 — lower, -10.7%
- CCc1cc(Cn2nc(-c3ccccc3)cc2C(=O)NCCOC)on1 — lower, -9.96%
- Brc1ccc2c(c1)C(C1=NCCN1)c1ccccc1CS2.O=C(O)/C=C\C(=O)O (centres unmarked) — lower, -20.3%
- COc1ccc(C(=O)NCCS(=O)(=O)NCc2ccccc2)cc1 — higher, 0.236%
- CCOC(=O)C(C(=O)Nc1ccccc1C)C1CCCCC1 (centres unmarked) — higher, 25.8%
- CCn1nc(C)c(NC(=O)/C=C/c2cnn(C)c2C)c1C — lower, -4.38%
- CCOC(=O)Cn1cc(Cl)cc(C(=O)Nc2ccccc2)c1=O — lower, -19.2%
- Cc1cc(C(=O)NC(C)C2CCCO2)c(C)o1 (centres unmarked) — higher, 17.7%
- O=C1CC(c2ccc(O)c(O)c2)Oc2c1ccc(O)c2O (centres unmarked) — higher, 2.09%
- O=C(NNS(=O)(=O)c1ccccc1)c1ccc(F)cc1 — higher, 12.3%
- O=[N+]([O-])c1cccc(-c2ccc(C(=S)N3CCN(c4ccc(F)cc4)CC3)o2)c1 — higher, 2.61%
- COc1ccc(CNC(=O)Cn2nnc(-c3ccc(NC(=O)C4CCCCC4)cc3)n2)cc1 — higher, 14%
- COC(=O)COc1ccc(S(=O)(=O)NCC2CCCO2)cc1Cl (centres unmarked) — lower, -11.6%
- O=C(Cc1ccccc1)Nc1nc(-c2cccc([N+](=O)[O-])c2)cs1 — higher, 9.32%
- CNC(=O)C1CC(=O)N(CCc2ccc(C)cc2)C1 (centres unmarked) — higher, 15.5%
- N=c1c2c(-c3ccccc3)c(-c3ccccc3)n(Cc3ccco3)c2ncn1CCO — lower, -71%
- COCCCN(CC(=O)NCc1ccccc1)S(=O)(=O)c1ccc(C)cc1 — lower, -21.9%
- O=C(O)Cn1c(=S)sc2ccccc21 — higher, 11.4%
- Cc1nc2ccc(NC(=O)NC(=O)c3c(Cl)cccc3Cl)cc2o1 — higher, 10.6%
- CC(C)OC(=O)COc1ccc(-c2ccccc2)cc1 — higher, 7.92%
- CCN(CCNC(=O)CCCn1nc(C)n2c(cc3sccc32)c1=O)c1ccccc1 — lower, -36.5%
- Cc1ccc(NC(=O)C2CC(Cl)=CCC2C(=O)O)c([N+](=O)[O-])c1 (centres unmarked) — lower, -0.391%
- CCOC(=O)c1cc(=O)c2ccc(OCC(=O)Nc3ccc(F)cc3)cc2o1 — higher, 4.23%
- Cc1ccc(S(=O)(=O)NCCC(=O)OCC(=O)N2CCCC2=O)cc1 — lower, -12.2%
- O=[N+]([O-])c1cc(C(F)(F)F)cc([N+](=O)[O-])c1NCCCNc1ccc([N+](=O)[O-])c2cccnc12 — higher, 14.4%
- CCn1c(=O)cc(OCC(=O)Nc2ccc(OC)c(OC)c2)c2ccccc21 — lower, -6.27%
- CCOCCn1c(CN2CCCCC2C)nc2c1c(=O)n(C)c(=O)n2C (centres unmarked) — higher, 1.44%
- Cc1ccc(SC(C)C(=O)O/N=C(\N)c2ccncc2)cc1 (centres unmarked) — higher, 8.12%
- COc1ccccc1CNC(=O)CSc1cc(=O)n(C)c2ccccc12 — lower, -2.22%
- CNCc1sccc1C.Cl — higher, 14.3%
- Cc1nn(C2CCS(=O)(=O)C2)c(C)c1C=O (centres unmarked) — higher, 1.67%
- C#CCn1c(=O)c2c(ncn2C)n(C)c1=O — higher, 11%
- N#CCCN(C(=O)COC(=O)CCc1c[nH]c2ccccc12)c1ccccc1 — higher, 4.67%
- Cc1ccc(C)c(NC(=O)c2ccccc2Sc2ccc([N+](=O)[O-])cc2Cl)c1 — higher, 15.5%
- COc1cccc(NC(=O)CN(C)CC(=O)Nc2ccc(C)c([N+](=O)[O-])c2)c1 — lower, -15.8%
- COc1ccc(NC2CCCN(C(=O)c3ccccc3N3CCOCC3)C2)cc1OC (centres unmarked) — higher, 8.44%
- C/C(Cn1nnc2ccccc21)=N\NC(=O)c1ccc(Br)cc1 — lower, -18.3%
- COCCCn1c(C(=O)N2CC(C)OC(C)C2)cc2c(=O)n3ccccc3nc21 (centres unmarked) — lower, -9.36%
- Oc1[nH]c(=S)sc1C=C1N=c2ccccc2=N1 — higher, 20.7%
- COc1cccc(C(=O)NCCN2C(=O)S/C(=C/c3cccs3)C2=O)c1OC — lower, -19.6%
- CCCOc1ccc(-c2csc(N)n2)cc1[N+](=O)[O-] — higher, 5.06%
- CCOC(=O)N1CCC2(CC1)C(C(=O)C13CC4CC(CC(C4)C1)C3)C2(C#N)C#N (centres unmarked) — lower, -18.2%
- CSc1ccccc1C(=O)C1CCCN(C(=O)c2csnn2)C1 (centres unmarked) — lower, -18.1%
- Cc1oc2nc(SCC(=O)N3CCCCC3)nc(N)c2c1C — lower, -12%
- CC(=O)Nc1ccc(S(=O)(=O)NCc2ccncc2)cc1 — lower, -7.33%
- O=C(Nc1ccc(Cl)cc1)OCCn1nnnc1C(c1ccccc1)N1CCOCC1 (centres unmarked) — lower, -36.5%
- Cc1ccc(NC(=O)C2(S(=O)(=O)c3ccc(Cl)cc3)CC2)c(Br)c1 — lower, -1.09%
- O=C(NCc1ccccc1Cl)c1ccc(Br)o1 — higher, 14.9%
- CC[C@H](C)[C@H](NC(N)=O)C(=O)Nc1ccc(C)cc1 — higher, 1.35%
- COc1ccc(OC2CCN(S(=O)(=O)c3ccccc3)CC2)cc1 — lower, -11.6%
- CCCOc1ccc(N2C(=O)C3C(C(C)C)NC4(C(=O)c5ccccc5C4=O)C3C2=O)cc1 (centres unmarked) — lower, -0.496%
- O=C1c2ccccc2C(=O)N1CCCCN(C(=O)c1cccc([N+](=O)[O-])c1)c1ccc(Cl)cc1 — lower, -7.96%
- COc1ccccc1NC(=S)N(CCCN1CCOCC1)Cc1cn(C)c2ccccc12 — lower, -2.2%
- Cc1cccc(C)c1NC(=O)CNC(=O)CNC(=O)c1ccc2c(c1)OCO2 — lower, -1.78%
- COCCN(C(=S)Nc1cc(C)cc(C)c1)C(C)c1cccs1 (centres unmarked) — higher, 3.56%
- CC1CCN(CC(=O)c2c[nH]c3ccccc23)CC1 — lower, -21.5%
- CCOC(=O)C1CCCN(C2=NC(=O)/C(=C/c3ccc(O)c(OCC)c3)S2)C1 (centres unmarked) — lower, -27%
